The labels stand for the following.
T1: RBFOX1 RRM (Homo sapiens, UniProt Q9NWB1 109-208)
T1 sequence: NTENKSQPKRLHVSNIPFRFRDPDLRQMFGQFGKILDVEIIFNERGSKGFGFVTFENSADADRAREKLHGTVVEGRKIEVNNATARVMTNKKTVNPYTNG

B1: AAGACGG (DNA:RNA)
RNA: GGGAGACCGGAAUUCAGAUUGUCCAAGACGGUUAAAUCCCGUCGUAGCCACCA
DNA 1: CAATCTGAATTCCGGTCTCCC
DNA 2: TGGTGGCTACGACGGGATT
B2: UCUGUUU (DNA:RNA)
RNA: GGGAGACCGGAAUUCAGAUUGUCCUCUGUUUUUAAAUCCCGUCGUAGCCACCA
DNA 1: CAATCTGAATTCCGGTCTCCC
DNA 2: TGGTGGCTACGACGGGATT
B3: GGAGAGU (DNA:RNA)
RNA: B2 RNA with U25G, C26G, U27A, U29A, U30G
DNA 1: CAATCTGAATTCCGGTCTCCC
DNA 2: TGGTGGCTACGACGGGATT
B4: UCCGACU (DNA:RNA)
RNA: B2 RNA with U27C, U29A, U30C
DNA 1: CAATCTGAATTCCGGTCTCCC
DNA 2: TGGTGGCTACGACGGGATT
B5: CGACUCC (DNA:RNA)
RNA: B2 RNA with U25C, C26G, U27A, G28C, U30C, U31C
DNA 1: CAATCTGAATTCCGGTCTCCC
DNA 2: TGGTGGCTACGACGGGATT
B6: AGUCGCC (DNA:RNA)
RNA: B1 RNA with A26G, G27U, A28C, C29G, G30C, G31C
DNA 1: CAATCTGAATTCCGGTCTCCC
DNA 2: TGGTGGCTACGACGGGATT
B7: UGUUCCA (DNA:RNA)
RNA: B2 RNA with C26G, G28U, U29C, U30C, U31A
DNA 1: CAATCTGAATTCCGGTCTCCC
DNA 2: TGGTGGCTACGACGGGATT
B8: GUCAACA (DNA:RNA)
RNA: B1 RNA with A25G, A26U, G27C, C29A, G30C, G31A
DNA 1: CAATCTGAATTCCGGTCTCCC
DNA 2: TGGTGGCTACGACGGGATT
B9: AACCUGC (DNA:RNA)
RNA: B1 RNA with G27C, A28C, C29U, G31C
DNA 1: CAATCTGAATTCCGGTCTCCC
DNA 2: TGGTGGCTACGACGGGATT
B10: GCCGAUC (DNA:RNA)
RNA: B2 RNA with U25G, U27C, U29A, U31C
DNA 1: CAATCTGAATTCCGGTCTCCC
DNA 2: TGGTGGCTACGACGGGATT
B11: CCAAUGU (DNA:RNA)
RNA: B2 RNA with U25C, U27A, G28A, U30G
DNA 1: CAATCTGAATTCCGGTCTCCC
DNA 2: TGGTGGCTACGACGGGATT
B12: CCGUACC (DNA:RNA)
RNA: B1 RNA with A25C, A26C, A28U, C29A, G30C, G31C
DNA 1: CAATCTGAATTCCGGTCTCCC
DNA 2: TGGTGGCTACGACGGGATT
B13: AAAACUU (DNA:RNA)
RNA: B1 RNA with G27A, G30U, G31U
DNA 1: CAATCTGAATTCCGGTCTCCC
DNA 2: TGGTGGCTACGACGGGATT
B14: ACACUAU (DNA:RNA)
RNA: B2 RNA with U25A, U27A, G28C, U30A
DNA 1: CAATCTGAATTCCGGTCTCCC
DNA 2: TGGTGGCTACGACGGGATT
B15: UUACGAC (DNA:RNA)
RNA: B2 RNA with C26U, U27A, G28C, U29G, U30A, U31C
DNA 1: CAATCTGAATTCCGGTCTCCC
DNA 2: TGGTGGCTACGACGGGATT
B16: GUGAAAG (DNA:RNA)
RNA: B1 RNA with A25G, A26U, C29A, G30A
DNA 1: CAATCTGAATTCCGGTCTCCC
DNA 2: TGGTGGCTACGACGGGATT
B17: UAGUCGA (DNA:RNA)
RNA: B1 RNA with A25U, A28U, G31A
DNA 1: CAATCTGAATTCCGGTCTCCC
DNA 2: TGGTGGCTACGACGGGATT
B18: GAAUUAG (DNA:RNA)
RNA: B1 RNA with A25G, G27A, A28U, C29U, G30A
DNA 1: CAATCTGAATTCCGGTCTCCC
DNA 2: TGGTGGCTACGACGGGATT
B19: CAGUAUC (DNA:RNA)
RNA: B1 RNA with A25C, A28U, C29A, G30U, G31C
DNA 1: CAATCTGAATTCCGGTCTCCC
DNA 2: TGGTGGCTACGACGGGATT
B20: UGGCAAC (DNA:RNA)
RNA: B1 RNA with A25U, A26G, A28C, C29A, G30A, G31C
DNA 1: CAATCTGAATTCCGGTCTCCC
DNA 2: TGGTGGCTACGACGGGATT
B21: GUUCUGA (DNA:RNA)
RNA: B2 RNA with U25G, C26U, G28C, U30G, U31A
DNA 1: CAATCTGAATTCCGGTCTCCC
DNA 2: TGGTGGCTACGACGGGATT
B22: UGAAUUA (DNA:RNA)
RNA: B2 RNA with C26G, U27A, G28A, U31A
DNA 1: CAATCTGAATTCCGGTCTCCC
DNA 2: TGGTGGCTACGACGGGATT
B23: CAUAAUC (DNA:RNA)
RNA: B1 RNA with A25C, G27U, C29A, G30U, G31C
DNA 1: CAATCTGAATTCCGGTCTCCC
DNA 2: TGGTGGCTACGACGGGATT
B24: CCAAUUC (DNA:RNA)
RNA: B2 RNA with U25C, U27A, G28A, U31C
DNA 1: CAATCTGAATTCCGGTCTCCC
DNA 2: TGGTGGCTACGACGGGATT
B25: AGGCACU (DNA:RNA)
RNA: B1 RNA with A26G, A28C, C29A, G30C, G31U
DNA 1: CAATCTGAATTCCGGTCTCCC
DNA 2: TGGTGGCTACGACGGGATT
B26: CUUGUCU (DNA:RNA)
RNA: B2 RNA with U25C, C26U, U30C
DNA 1: CAATCTGAATTCCGGTCTCCC
DNA 2: TGGTGGCTACGACGGGATT
B27: AACAGGA (DNA:RNA)
RNA: B1 RNA with G27C, C29G, G31A
DNA 1: CAATCTGAATTCCGGTCTCCC
DNA 2: TGGTGGCTACGACGGGATT
B28: CCUCGAU (DNA:RNA)
RNA: B2 RNA with U25C, G28C, U29G, U30A
DNA 1: CAATCTGAATTCCGGTCTCCC
DNA 2: TGGTGGCTACGACGGGATT
B29: CGAUCUC (DNA:RNA)
RNA: B1 RNA with A25C, A26G, G27A, A28U, G30U, G31C
DNA 1: CAATCTGAATTCCGGTCTCCC
DNA 2: TGGTGGCTACGACGGGATT
B30: CGGACAG (DNA:RNA)
RNA: B1 RNA with A25C, A26G, G30A
DNA 1: CAATCTGAATTCCGGTCTCCC
DNA 2: TGGTGGCTACGACGGGATT
B31: CGGGGGA (DNA:RNA)
RNA: B1 RNA with A25C, A26G, A28G, C29G, G31A
DNA 1: CAATCTGAATTCCGGTCTCCC
DNA 2: TGGTGGCTACGACGGGATT

31 molecules from PMC9911399, “Two distinct binding modes provide the RNA-binding protein RbFox with extraordinary sequence specificity” can be followed below.

Positions count from the first letter of the chain named. The list shows a part of the results.

The target of the experiment is T1, RBFOX1 RRM. Put plainly: EMSA; HiTS-Eq, 1 nM pool, 10 min; buffer printed only for the single-RNA assays: 10 mM Tris pH 7.5, 150 mM NaCl, 3.4 mM EDTA, 0.001% NP-40, 30 C. The settings on record: tags: His6 N-terminal (pET28a); label: 5' 32P. A digest of the protocol:
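Relative association constants, normalised to the cognate motif, were derived by comparing read counts of each RNA species with those of the control reaction. The RNA sequenced was the free fraction, separated by 8% native PAGE after a 10 min equilibration in 50 µL of 1 nM 5′-radiolabelled RNA (7 randomized nucleotides) with increasing concentrations of purified wild-type or mutant RbFox RRM.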
B1: the binding signal is 0.00528 KA relative to UGCAUGU.

In the case of B2, the binding signal is 0.018 KA relative to UGCAUGU.

Turning to B3, the binding signal is 0.0264 KA relative to UGCAUGU.

For the molecule B4, the binding signal is 0.00823 KA relative to UGCAUGU.

Turning to B5, the binding signal was 0.00792 KA relative to UGCAUGU.

Regarding B6, the binding signal is 0.0119 KA relative to UGCAUGU.

As for B7, the binding signal was 0.0162 KA relative to UGCAUGU.

B8: the binding signal is 0.00281 KA relative to UGCAUGU.

For B9, the binding signal is 0.00657 KA relative to UGCAUGU.

B10: the binding signal is 0.0172 KA relative to UGCAUGU.

Consider B11, for which the binding signal was 0.00233 KA relative to UGCAUGU.

For B12, the binding signal is 0.00711 KA relative to UGCAUGU.

For B13, the binding signal was 0.0016 KA relative to UGCAUGU.

Regarding B14, the binding signal was 0.00183 KA relative to UGCAUGU.

For B15, the binding signal is 0.00463 KA relative to UGCAUGU.

As to B16, the binding signal was 0.0155 KA relative to UGCAUGU.

Take B17: the binding signal is 0.0129 KA relative to UGCAUGU.

On to B18, for which the binding signal was 0.00996 KA relative to UGCAUGU.

Take B19: the binding signal was 0.00592 KA relative to UGCAUGU.

As to B20, the binding signal was 0.0191 KA relative to UGCAUGU.

B21: the binding signal was 0.0306 KA relative to UGCAUGU.

Take B22: the binding signal was 0.0109 KA relative to UGCAUGU.

On to B23, for which the binding signal was 0.00133 KA relative to UGCAUGU.

For the molecule B24, the binding signal was 0.00113 KA relative to UGCAUGU.

B25: the binding signal was 0.0105 KA relative to UGCAUGU.

On to B26, for which the binding signal was 0.0146 KA relative to UGCAUGU.

B27: the binding signal was 0.00197 KA relative to UGCAUGU.

Take B28: the binding signal is 0.00735 KA relative to UGCAUGU.

As for B29, the binding signal is 0.00942 KA relative to UGCAUGU.

In the case of B30, the binding signal is 0.0217 KA relative to UGCAUGU.

Regarding B31, the binding signal was 0.0116 KA relative to UGCAUGU.
